Test results as given in the supplement of paper PMC9446081.
The campaign covered roughly 39,000 compounds. About 220 (0.56%) showed activity. The list shows a part of the results.

Tested on: Escherichia coli K-12 BW25113
Assay: relative growth (OD600 normalised to plate interquartile mean) (fraction); higher = less growth inhibition, active = 0.2 or less
Conditions: 50 µM; LB; incubation time: overnight (16-24 h)
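Also: static incubation at 37 °C against the wild-type strain, values averaged over two biological replicates.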

Compound | relative growth
CO[C@H]1CN(C)C(=O)c2cc(NC(=O)Nc3cccc(F)c3)ccc2OC[C@@H](C)N(C(=O)Nc2c(C)noc2C)C[C@@H]1C | inactive: 0.981
C[C@H]1CCCCO[C@H](CN(C)Cc2ccc(C(F)(F)F)cc2)[C@@H](C)CN([C@@H](C)CO)C(=O)c2cc(NC(=O)CCC(F)(F)F)ccc2O1 | inactive: 1.04
CN(C)CCCNC(=O)C[C@H]1CC[C@@H](NS(=O)(=O)c2ccccc2)[C@H](CO)O1 | inactive: 1.02
O=C(C[C@@H]1CC[C@@H]2[C@H](COC[C@H](O)CN2S(=O)(=O)c2ccccc2Cl)O1)NCc1ccccc1Cl | inactive: 1
C[C@H]1CN([C@@H](C)CO)C(=O)CCCn2nncc2CO[C@H]1CN(C)C(=O)Nc1ccc2c(c1)OCO2 | inactive: 1.01
O=C(C[C@@H]1CC[C@@H]2[C@H](COC[C@H](O)CN2S(=O)(=O)c2ccc(F)cc2)O1)N[C@@H]1CCN(Cc2ccccc2)C1 | inactive: 0.989
C[C@H](CO)N1C[C@H](C)[C@H](CN(C)C(=O)C2CC2)OCc2cnnn2CCCC1=O | inactive: 0.98
C[C@H]1CN([C@@H](C)CO)C(=O)c2cc(NC(=O)CCCN(C)C)ccc2O[C@H]1CN(C)Cc1ccc(C(=O)O)cc1 | inactive: 0.956
CO[C@H]1CN(C)C(=O)c2cc(NC(=O)Nc3ccc(Cl)cc3)ccc2OC[C@H](C)N(C(=O)Nc2c(C)noc2C)C[C@H]1C | inactive: 0.992
C[C@H](CO)N1C[C@H](C)[C@H](CN(C)S(=O)(=O)c2ccccc2)Oc2ccc(NC(=O)CCCN(C)C)cc2C1=O | inactive: 1.01
C[C@H](O)C#Cc1ccc2c(c1)O[C@H](CN(C)C(=O)Nc1ccccc1)[C@@H](C)CN([C@@H](C)CO)S2(=O)=O | inactive: 1
Cc1noc(C)c1NC(=O)Nc1cccc2c1O[C@H](CN(C)Cc1ccc(Cl)c(Cl)c1)[C@@H](C)CN([C@@H](C)CO)C2=O | inactive: 0.992
C[C@@H]1CN([C@@H](C)CO)C(=O)c2cc(NC(=O)Cc3ccccc3)ccc2O[C@H]1CN(C)Cc1ccc(C(=O)Nc2ccccc2N)cc1 | inactive: 1.01
C[C@@H]1CN([C@@H](C)CO)C(=O)c2cc(NC(=O)c3ccncc3)ccc2O[C@@H](C)CCCCO[C@@H]1CN(C)S(=O)(=O)c1ccc(Cl)cc1 | inactive: 1.09
Cc1noc(C)c1S(=O)(=O)Nc1cccc2c1O[C@H](CN(C)Cc1ccc(Oc3ccccc3)cc1)[C@H](C)CN([C@H](C)CO)C2=O | inactive: 1.01
C[C@@H]1CN([C@H](C)CO)C(=O)c2cc(NS(=O)(=O)c3ccc(F)cc3)ccc2O[C@H]1CN(C)S(=O)(=O)c1cccs1 | inactive: 1
NCCN1CCC(c2cccs2)CC1 | inactive: 1.03
C[C@@H]1CCCCO[C@H](CN(C)C(=O)C2CCCCC2)[C@@H](C)CN([C@@H](C)CO)C(=O)c2cc(NS(=O)(=O)c3ccccc3)ccc2O1 | inactive: 0.976
C[C@@H]1CCCCO[C@@H](CN(C)Cc2ccc(C(F)(F)F)cc2)[C@@H](C)CN([C@H](C)CO)C(=O)c2cc(NC(=O)Nc3ccc(F)cc3)ccc2O1 | inactive: 1

Compound | relative growth
O=C(C1=C[C@@H](c2csc3ccccc23)C[C@@H](OCc2ccc(CO)cc2)O1)N1CCN(Cc2ccc3c(c2)OCO3)CC1 | inactive: 1.02
CN(C)C(=O)[C@H]1C[C@@H]2CCN(S(C)(=O)=O)C[C@H]2O1 | inactive: 0.988
CCCNC(=O)N[C@@H]1C=C[C@H](CC(=O)N2CCN(C)CC2)O[C@@H]1CO | inactive: 0.989
COc1ccccc1CNC(=O)C[C@H]1C[C@@H]2c3cc(NC(=O)c4ccc5c(c4)OCO5)ccc3O[C@@H]2[C@H](CO)O1 | inactive: 1
COC(=O)C[C@@H]1C=C[C@@H](N)[C@H](CO)O1 | inactive: 0.989
COCC#Cc1ccc([C@H]2[C@@H](CO)N3C(=O)CN(C(=O)C4CCOCC4)C[C@@H]23)cc1 | inactive: 0.986
O=C(C[C@@H]1C[C@@H]2c3cc(NS(=O)(=O)c4ccc(F)cc4)ccc3O[C@@H]2[C@H](CO)O1)NCc1ccc(Oc2ccccc2)cc1 | inactive: 1.01
O=C(C[C@H]1C[C@@H]2c3cc(NS(=O)(=O)c4ccc(F)cc4)ccc3O[C@@H]2[C@H](CO)O1)NCCN1CCCCC1 | inactive: 0.981
CC(O)(P(=O)([O-])O)P(=O)([O-])O.[Na+].[Na+] | inactive: 0.973
COC(=O)[C@@]12OC[C@]34[C@H]([C@@H](O)[C@@H]1O)[C@@]1(C)CC(=O)C(=O)[C@H](C)[C@@H]1C[C@H]3OC(=O)[C@H](OC(=O)/C=C(\C)C(C)C)[C@@H]24 | inactive: 0.974
Cl.N=C(N)NC(=N)N1CCOCC1 | inactive: 0.963
CC(C)NC(=O)Nc1ccc2c(c1)C(=O)N([C@@H](C)CO)C[C@@H](C)[C@H](CN(C)S(C)(=O)=O)OCCCC[C@@H](C)O2 | inactive: 1.01
CC(C)NC(=O)N(C)C[C@H]1OCCCC[C@H](C)Oc2ccc(NS(C)(=O)=O)cc2C(=O)N([C@@H](C)CO)C[C@H]1C | inactive: 0.972
O=C(O)c1cc2n(n1)CCC2 | inactive: 1.03
C[C@@H]1CCCCO[C@H](CN(C)C(=O)CCCN(C)C)[C@@H](C)CN([C@H](C)CO)C(=O)c2cc(NC(=O)Nc3ccc(F)cc3)ccc2O1 | inactive: 0.962
O=C(C[C@H]1C=C[C@@H](NC(=O)CN2CCOCC2)[C@@H](CO)O1)NCCc1ccccc1 | inactive: 1.02
C=CCOC(=O)[C@H]1[C@@H]2C(=O)O[C@@H](c3ccccc3)[C@@H](c3ccccc3)N2[C@@H](c2ccc(OCCOC(=O)[C@@H]3C[C@@H]4C(=O)N[C@@H](Cc5ccccc5)C(=O)N4[C@@H]3c3ccc(O)cc3)cc2)[C@]12C(=O)Nc1ccc(I)cc12 | inactive: 1.11
C[C@@H]1CN([C@@H](C)CO)C(=O)c2cc(NC(=O)Nc3ccc(C(F)(F)F)cc3)ccc2O[C@@H](C)CCCCO[C@@H]1CN(C)C(=O)Nc1cccc2ccccc12 | inactive: 1.06
Cc1noc(C)c1S(=O)(=O)N(C)C[C@@H]1Oc2ccc(NC(=O)NC3CCCCC3)cc2CC(=O)N([C@@H](C)CO)C[C@H]1C | inactive: 0.991
